# According to the supplement of paper PMC8728848:
# The other results are listed elsewhere or left out.
# Legend:
# Assay in all cases: glycan array binding signal (z-score within array); higher = stronger binding
# Details in all cases: glycan notation: IUPAC condensed, linker removed; mutation: H59Q
# [1] = biological target: GalNAc(b1-4)GlcNAc
# Method in brief: (§1)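 Glycan array data were curated from 3228 arrays in the Consortium for Functional Glycomics database and kept only where the protein sequence was available. Glycan names were converted to IUPAC-condensed notation, and columns mapping to the same glycan were averaged. The binding signal is a within-array Z-score, averaged across arrays of the same protein sequence at different concentrations or buffers and across linkers. Negative Z-scores can be read as non-binding.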
# [2] = biological target: GalNAc(b1-4)GlcNAc(b1-2)Man
# Method in brief: as §1
# [3] = biological target: GalNAc(b1-4)GlcNAc(b1-2)Man(a1-3)[GalNAc(b1-4)GlcNAc(b1-2)Man(a1-6)]Man(b1-4)GlcNAc(b1-4)GlcNAc
# Method in brief: as §1
# [4] = biological target: GalNAc(b1-4)GlcNAc(b1-3)GalNAc(b1-4)GlcNAc
# Method in brief: as §1
# [5] = biological target: GalNAc(b1-4)GlcNAc6S
# Method in brief: as §1
# [6] = biological target: GalNAc(b1-6)GalNAc
# Method in brief: as §1
# [7] = biological target: GalNAc3S(b1-4)GlcNAc
# Method in brief: as §1
# [8] = biological target: GalNAc3S(b1-4)GlcNAc3S
# Method in brief: as §1
# [9] = biological target: GalNAc3S(b1-4)[Fuc(a1-3)]GlcNAc
# Method in brief: as §1
# [10] = biological target: GalNAc4S6S(b1-4)GlcNAc
# Method in brief: as §1
# [11] = biological target: GalNAc6S(b1-4)GlcNAc
# Method in brief: as §1
# [12] = biological target: Glc(a1-4)Glc
# Method in brief: as §1
# [13] = biological target: Glc(a1-4)Glc(a1-4)Glc(a1-4)Glc
# Method in brief: as §1
# [14] = biological target: Glc(a1-6)Glc(a1-6)Glc
# Method in brief: as §1
# [15] = biological target: Glc(a1-6)Glc(a1-6)Glc(a1-6)Glc
# Method in brief: as §1
# [16] = biological target: Glc(b1-4)Glc
# Method in brief: as §1
# [17] = biological target: Glc(b1-6)Glc
# Method in brief: as §1
# [18] = biological target: GlcA(b1-3)Gal
# Method in brief: as §1
# [19] = biological target: GlcA(b1-3)GlcNAc
# Method in brief: as §1
# [20] = biological target: GlcA(b1-6)Gal
# Method in brief: as §1
# [21] = biological target: GlcA3S(b1-3)Gal(b1-4)GlcNAc(b1-2)Man
# Method in brief: as §1
# [22] = biological target: GlcA3S(b1-3)Gal(b1-4)GlcNAc(b1-3)Gal(b1-4)Glc
# Method in brief: as §1
# [23] = biological target: GlcNAc(a1-3)Gal(b1-4)GlcNAc
# Method in brief: as §1
# [24] = biological target: GlcNAc(a1-4)Gal(b1-3)GlcNAc
# Method in brief: as §1
# [25] = biological target: GlcNAc(a1-4)Gal(b1-4)GalNAc
# Method in brief: as §1
# [26] = biological target: GlcNAc(a1-4)Gal(b1-4)GlcNAc
# Method in brief: as §1
# [27] = biological target: GlcNAc(a1-4)Gal(b1-4)GlcNAc(b1-3)Gal(b1-4)Glc
# Method in brief: as §1
# [28] = biological target: GlcNAc(a1-4)Gal(b1-4)GlcNAc(b1-3)Gal(b1-4)GlcNAc
# Method in brief: as §1
# [29] = biological target: GlcNAc(a1-4)Gal(b1-4)GlcNAc(b1-3)Gal(b1-4)GlcNAc(b1-3)Gal(b1-4)GlcNAc
# Method in brief: as §1
# [30] = biological target: GlcNAc(a1-4)Gal(b1-4)GlcNAc(b1-3)Gal(b1-4)[Fuc(a1-3)]GlcNAc(b1-3)Gal(b1-4)[Fuc(a1-3)]GlcNAc
# Method in brief: as §1
# [31] = biological target: GlcNAc(a1-6)Gal(b1-4)GlcNAc
# Method in brief: as §1
# [32] = biological target: GlcNAc(b1-2)Gal(b1-3)GalNAc
# Method in brief: as §1
# [33] = biological target: GlcNAc(b1-2)Man(a1-3)[GlcNAc(b1-2)Man(a1-6)]Man(b1-4)GlcNAc(b1-4)GlcNAc
# Method in brief: as §1
# [34] = biological target: GlcNAc(b1-2)Man(a1-3)[GlcNAc(b1-2)Man(a1-6)]Man(b1-4)GlcNAc(b1-4)[Fuc(a1-6)]GlcNAc
# Method in brief: as §1
# [35] = biological target: GlcNAc(b1-2)Man(a1-3)[GlcNAc(b1-4)][GlcNAc(b1-2)Man(a1-6)]Man(b1-4)GlcNAc(b1-4)GlcNAc
# Method in brief: as §1
# [36] = biological target: GlcNAc(b1-2)Man(a1-3)[GlcNAc(b1-4)][GlcNAc(b1-2)Man(a1-6)]Man(b1-4)GlcNAc(b1-4)[Fuc(a1-6)]GlcNAc
# Method in brief: as §1
# [37] = biological target: GlcNAc(b1-2)[GlcNAc(b1-4)]Man(a1-3)[GlcNAc(b1-2)Man(a1-6)]Man(b1-4)GlcNAc(b1-4)GlcNAc
# Method in brief: as §1
# [38] = biological target: GlcNAc(b1-2)[GlcNAc(b1-4)]Man(a1-3)[GlcNAc(b1-4)][GlcNAc(b1-2)Man(a1-6)]Man(b1-4)GlcNAc(b1-4)GlcNAc
# Method in brief: as §1
# [39] = biological target: GlcNAc(b1-2)[GlcNAc(b1-4)]Man(a1-3)[GlcNAc(b1-4)][GlcNAc(b1-2)[GlcNAc(b1-6)]Man(a1-6)]Man(b1-4)GlcNAc(b1-4)GlcNAc
# Method in brief: as §1
# [40] = biological target: GlcNAc(b1-2)[GlcNAc(b1-4)]Man(a1-3)[GlcNAc(b1-4)][GlcNAc(b1-2)[GlcNAc(b1-6)]Man(a1-6)]Man(b1-4)GlcNAc(b1-4)[Fuc(a1-6)]GlcNAc
# Method in brief: as §1
# [41] = biological target: GlcNAc(b1-2)[GlcNAc(b1-6)]Man(a1-6)[GlcNAc(b1-2)Man(a1-3)]Man(b1-4)GlcNAc(b1-4)GlcNAc
# Method in brief: as §1
# [42] = biological target: GlcNAc(b1-2)[GlcNAc(b1-6)]Man(a1-6)[GlcNAc(b1-2)Man(a1-3)]Man(b1-4)GlcNAc(b1-4)[Fuc(a1-6)]GlcNAc
# Method in brief: as §1
# [43] = biological target: GlcNAc(b1-2)[GlcNAc(b1-6)]Man(a1-6)[GlcNAc(b1-4)][GlcNAc(b1-2)Man(a1-3)]Man(b1-4)GlcNAc(b1-4)GlcNAc
# Method in brief: as §1
# [44] = biological target: GlcNAc(b1-3)Fuc
# Method in brief: as §1
# [45] = biological target: GlcNAc(b1-3)Gal
# Method in brief: as §1
binder,measurement,setting,value
"rAAL-H59Q (Agrocybe aegerita), Q6WY08 (protein) MQGVNIYNISAGTSVDLAAPVTTGDIVTFFSSALNLNAGAGNPNNTTLNLFAENGAYLLQIAFRLQENVIIFNSRQPDGPWLVEQRVSDVANQFAGIDGKAMVTVFDHGDKYQVVINEKTVIQYTKQISGLTLSLSYNATEETSIFSTVVEAVTYTGLALEHHHHHH",glycan array binding signal (z-score),[1],-0.054
same,glycan array binding signal (z-score),[2],-0.195
same,glycan array binding signal (z-score),[3],-0.078
same,glycan array binding signal (z-score),[4],-0.077
same,glycan array binding signal (z-score),[5],-0.023
same,glycan array binding signal (z-score),[6],-0.041
same,glycan array binding signal (z-score),[7],-0.111
same,glycan array binding signal (z-score),[8],-0.041
same,glycan array binding signal (z-score),[9],-0.094
same,glycan array binding signal (z-score),[10],-0.005
same,glycan array binding signal (z-score),[11],-0.008
same,glycan array binding signal (z-score),[12],-0.011
same,glycan array binding signal (z-score),[13],-0.102
same,glycan array binding signal (z-score),[14],-0.066
same,glycan array binding signal (z-score),[15],-0.039
same,glycan array binding signal (z-score),[16],-0.121
same,glycan array binding signal (z-score),[17],-0.131
same,glycan array binding signal (z-score),[18],-0.027
same,glycan array binding signal (z-score),[19],-0.087
same,glycan array binding signal (z-score),[20],-0.064
same,glycan array binding signal (z-score),[21],19.6
same,glycan array binding signal (z-score),[22],12.1
same,glycan array binding signal (z-score),[23],-0.114
same,glycan array binding signal (z-score),[24],-0.085
same,glycan array binding signal (z-score),[25],-0.03
same,glycan array binding signal (z-score),[26],-0.055
same,glycan array binding signal (z-score),[27],-0.059
same,glycan array binding signal (z-score),[28],-0.07
same,glycan array binding signal (z-score),[29],-0.06
same,glycan array binding signal (z-score),[30],-0.048
same,glycan array binding signal (z-score),[31],-0.073
same,glycan array binding signal (z-score),[32],-0.054
same,glycan array binding signal (z-score),[33],-0.054
same,glycan array binding signal (z-score),[34],-0.07
same,glycan array binding signal (z-score),[35],-0.017
same,glycan array binding signal (z-score),[36],-0.01
same,glycan array binding signal (z-score),[37],-0.076
same,glycan array binding signal (z-score),[38],-0.055
same,glycan array binding signal (z-score),[39],-0.088
same,glycan array binding signal (z-score),[40],-0.148
same,glycan array binding signal (z-score),[41],-0.083
same,glycan array binding signal (z-score),[42],-0.041
same,glycan array binding signal (z-score),[43],-0.043
same,glycan array binding signal (z-score),[44],-0.087
same,glycan array binding signal (z-score),[45],-0.129
